Data from patent US12448436B2, “Antibody specifically binding to GRP94 or antigen-binding fragment thereof, and uses thereof” (KOOKMIN UNIVERSITY INDUSTRY ACADEMY COOPERATION FOUNDATION, priority 2020, dated 2025).

Assays:
[1] = Protein aggregation index (UV absorbance 280/340 nm); assay type: physicochemical; details: antibody in PBS; 100×(Abs340/[Abs280−Abs340]); control HCl-aggregated GRP94 antigen
Experimental: To evaluate the production the antibodies (B5, E5, 2H5, and 3G7) of the present disclosure and the antibody aggregation after purification, each of the antibodies was added to PBS and absorbance was read at 280 nm and 340 nm using NanoDrop 2000 (Thermo Fisher Scientific). The protein aggregation index was calculated from UV absorbance according to the following equation. As a control, the GRP94 antigen that was induced by treatment with HCl to aggregate was used. Protein Aggregation Index=100×(Abs340/[Abs280−Abs340]) Equation 1

recombinant human GRP94 = molecular target: T1, recombinant human GRP94 (Homo sapiens, UniProt P14625); assay: ELISA binding to recombinant human GRP94; details: high specificity stated for human and rat antigens
T1 construct: made in house; host or cells: Expi293 cells (pcDNA 3.4)
T1 sequence (P14625 22-803): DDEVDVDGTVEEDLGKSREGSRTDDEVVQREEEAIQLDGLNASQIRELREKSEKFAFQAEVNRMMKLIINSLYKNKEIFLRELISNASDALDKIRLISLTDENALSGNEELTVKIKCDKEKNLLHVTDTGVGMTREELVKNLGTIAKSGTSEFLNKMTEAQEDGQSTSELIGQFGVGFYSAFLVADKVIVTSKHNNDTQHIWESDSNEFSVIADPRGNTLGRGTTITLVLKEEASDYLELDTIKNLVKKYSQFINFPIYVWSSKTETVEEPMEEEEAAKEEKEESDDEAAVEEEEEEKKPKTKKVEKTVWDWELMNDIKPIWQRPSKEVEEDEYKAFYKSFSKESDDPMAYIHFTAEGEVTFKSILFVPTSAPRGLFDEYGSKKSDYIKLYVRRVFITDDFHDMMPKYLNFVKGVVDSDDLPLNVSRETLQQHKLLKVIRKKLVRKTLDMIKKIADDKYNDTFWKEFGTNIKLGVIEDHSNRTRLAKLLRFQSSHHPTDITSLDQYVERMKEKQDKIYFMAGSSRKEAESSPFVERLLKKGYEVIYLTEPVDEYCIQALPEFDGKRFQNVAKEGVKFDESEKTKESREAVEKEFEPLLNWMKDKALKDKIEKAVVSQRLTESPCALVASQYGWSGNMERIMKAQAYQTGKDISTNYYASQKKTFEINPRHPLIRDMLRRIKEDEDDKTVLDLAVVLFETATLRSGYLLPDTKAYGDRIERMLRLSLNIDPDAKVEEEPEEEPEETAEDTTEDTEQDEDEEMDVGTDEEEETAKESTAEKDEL
Experimental: (§1) Each well of 96-well plates was coated with 0.1 μg of recombinant human GRP94 (rhGRP94), blocked with 3% (w/v) bovine serum albumin (BSA) in phosphate buffered saline (PBS) for 2 hours at 37° C., and incubated with 100 μL of GRP94 targeting IgG (20 μg/mL) for 2 hours at 37° C. The plates were washed thrice with 0.05% PBS-T, and 100 μL of a 500:1 dilution of the secondary antibody anti-human Fc Ab (Sigma-Aldrich) was added to each well. Incubation at 37° C. for 1 hour was followed by three rounds of washing with 0.05% PBS-T. Then, 100 μL of 3,3′,5,5′-tetramethylbenzidine (1-step ultra TMB) substrate solution was added to each well. Finally, optical densities were measured at 450 nm using a microplate reader (Synergy H1, BioTek).
The four GRP94 IgGs (B5, E5, 2H5, and 3G7) of the present disclosure were measured for equilibrium dissociation constant (KD). In this regard, each well of 96-well plates was coated with 100 ng of rhGRP94 and blocked with 3% (w/v) bovine serum albumin (BSA) in PBS at 37° C. for 2 hours. Next, the plates were incubated with a concentration gradient of 0 nM to 500 nM of each clone for the GRP94 IgGs at 37° C. for 2 hours. […]
(§2) After 96-well plates were coated with BSA, recombinant human GRP94, recombinant rat GRP94, and recombinant monkey GRP94, their binding affinity for each antibody (B5, E5, 2H5, or 3G7) was measured by ELISA.

recombinant rat GRP94 = recombinant rat GRP94 (Rattus norvegicus, UniProt Q66HD0); assay: ELISA binding to recombinant rat GRP94; details: high specificity stated for human and rat antigens
Sequence of recombinant rat GRP94 (Q66HD0 22-804): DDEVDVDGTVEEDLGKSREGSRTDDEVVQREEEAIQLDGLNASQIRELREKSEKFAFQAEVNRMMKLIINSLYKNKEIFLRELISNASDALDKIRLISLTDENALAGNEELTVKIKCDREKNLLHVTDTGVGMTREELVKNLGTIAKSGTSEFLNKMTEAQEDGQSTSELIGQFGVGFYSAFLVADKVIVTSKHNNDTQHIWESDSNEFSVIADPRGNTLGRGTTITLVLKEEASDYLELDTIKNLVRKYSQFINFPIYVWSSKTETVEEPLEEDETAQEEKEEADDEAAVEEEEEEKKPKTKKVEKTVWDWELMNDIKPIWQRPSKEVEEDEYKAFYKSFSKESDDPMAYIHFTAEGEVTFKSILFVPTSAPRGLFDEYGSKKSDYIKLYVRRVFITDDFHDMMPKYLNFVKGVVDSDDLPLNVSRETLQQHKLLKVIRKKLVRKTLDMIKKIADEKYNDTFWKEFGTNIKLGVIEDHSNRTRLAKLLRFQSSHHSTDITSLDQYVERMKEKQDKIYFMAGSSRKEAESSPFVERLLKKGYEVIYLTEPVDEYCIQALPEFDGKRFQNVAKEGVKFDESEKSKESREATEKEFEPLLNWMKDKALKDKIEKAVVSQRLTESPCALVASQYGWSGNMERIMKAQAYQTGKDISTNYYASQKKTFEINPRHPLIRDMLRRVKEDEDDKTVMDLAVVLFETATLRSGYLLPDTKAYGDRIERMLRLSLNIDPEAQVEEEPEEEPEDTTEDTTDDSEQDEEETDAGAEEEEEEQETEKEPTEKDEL
Experimental: as §1, §2

recombinant monkey GRP94 = recombinant monkey GRP94 (Macaca fascicularis, UniProt Q4R520); assay: ELISA binding to recombinant monkey GRP94
Sequence of recombinant monkey GRP94 (Q4R520 22-804): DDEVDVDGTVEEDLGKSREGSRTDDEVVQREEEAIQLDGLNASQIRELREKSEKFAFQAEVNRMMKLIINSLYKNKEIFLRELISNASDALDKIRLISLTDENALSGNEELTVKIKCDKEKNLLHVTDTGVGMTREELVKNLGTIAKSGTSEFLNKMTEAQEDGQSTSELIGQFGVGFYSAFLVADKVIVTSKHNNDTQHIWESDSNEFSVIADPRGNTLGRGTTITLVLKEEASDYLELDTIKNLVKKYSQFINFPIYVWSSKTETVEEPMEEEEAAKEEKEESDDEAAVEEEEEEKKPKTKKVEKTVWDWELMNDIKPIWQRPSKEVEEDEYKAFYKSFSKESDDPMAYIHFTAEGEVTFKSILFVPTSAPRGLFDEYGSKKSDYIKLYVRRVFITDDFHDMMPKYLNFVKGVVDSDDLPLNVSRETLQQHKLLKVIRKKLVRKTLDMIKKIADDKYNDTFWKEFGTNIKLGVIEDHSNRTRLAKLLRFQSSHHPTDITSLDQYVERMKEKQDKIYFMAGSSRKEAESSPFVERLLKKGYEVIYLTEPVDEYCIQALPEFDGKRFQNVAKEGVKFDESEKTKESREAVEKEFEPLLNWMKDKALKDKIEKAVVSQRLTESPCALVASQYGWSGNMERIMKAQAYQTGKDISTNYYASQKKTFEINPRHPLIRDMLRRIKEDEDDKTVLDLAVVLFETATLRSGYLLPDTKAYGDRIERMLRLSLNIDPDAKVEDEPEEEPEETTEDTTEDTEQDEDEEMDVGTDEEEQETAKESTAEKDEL
Experimental: as §1, §2

HCT8 cells = assay: In vitro CRC proliferation assay, HCT8; assay type: cell-based, human; details: 20 μg/mL, 72 hours, MOCK 4.8±0.25
Experimental: (§3) The four anti-GRP94 human IgG antibodies B5, E5, 2H5, and 3G7 of the present disclosure were examined in vitro for effect on CRC cell proliferation. […] The culture medium was removed by suction and the cells were washed with 10 mL of phosphate buffered saline (hereinafter PBS). After removal of PBS by suction, the cells were treated 2 mL of TrypLE Express Enzyme at 37° C. for 3 minutes in a 5% CO2 incubator. Thereafter, the cells were added with 8 mL of the culture medium, transferred to 15-mL tube, and centrifuged at 500×g for 5 minutes. After removal of the supernatant, the cells were suspended in the culture medium. From a small portion of the cell suspension, the cells were counted using the Countess II Automated Cell Counter. […] The 96-well plates were mounted on the Incucyte Zoom system. With the microscope magnification set at 4×, images were collected at intervals of 2 hours for 72 hours. From the collected images, cell growth was monitored using the IncuCyte FLR live content imaging system (Essen Bioscience, Ann Arbor, MI, USA).

HCT116 cells = assay: In vitro CRC proliferation assay, HCT116; assay type: cell-based, human; details: 20 μg/mL, end point, relative to the control PBS
Experimental: The four anti-GRP94 human IgG antibodies B5, E5, 2H5, and 3G7 of the present disclosure were examined in vitro for effect on CRC cell proliferation. For use in the efficacy assay, the four cetuximab-resistant colorectal cancer cell lines HCT116, HT29, LoVo, and HCT-8 were each grown in a culture medium (HCT116, HCT8, HT29, and LoVo: RPMI1640+10% FBS+1% Penicillin-Streptomycin) at 37° C. in T-75 flask in a 5% CO2 incubator until reaching about 80-90% confluency. The culture medium was removed by suction and the cells were washed with 10 mL of phosphate buffered saline (hereinafter PBS). After removal of PBS by suction, the cells were treated 2 mL of TrypLE Express Enzyme at 37° C. for 3 minutes in a 5% CO2 incubator. Thereafter, the cells were added with 8 mL of the culture medium, transferred to 15-mL tube, and centrifuged at 500×g for 5 minutes. After removal of the supernatant, the cells were suspended in the culture medium. From a small portion of the cell suspension, the cells were counted using the Countess II Automated Cell Counter. […] The 96-well plates were mounted on the Incucyte Zoom system. With the microscope magnification set at 4×, images were collected at intervals of 2 hours for 72 hours. From the collected images, cell growth was monitored using the IncuCyte FLR live content imaging system (Essen Bioscience, Ann Arbor, MI, USA).

HT29 cells = assay: In vitro CRC proliferation assay, HT29; assay type: cell-based, human; details: 20 μg/mL
Experimental: as §3

LoVo cells = assay: In vitro CRC proliferation assay, LoVo; assay type: cell-based, human; details: 20 μg/mL
Experimental: as §3

[2] = molecular target: T2, rhGRP94 CTD fragment (part 4, Glu 602-Glu 799) (Homo sapiens, UniProt P14625); assay: Epitope comparison ELISA, rhGRP94 fragment part 4; assay type: binding; details: antibody 1 μg/mL, 100 ng fragment
T2 construct: Part; 4 (Glu 602-Glu 799) of the human GRP94 gene (Gene ID: 7184); made in house; host or cells: Expi293 expression system (pcDNA 3.4)
T2 sequence (P14625 602-799): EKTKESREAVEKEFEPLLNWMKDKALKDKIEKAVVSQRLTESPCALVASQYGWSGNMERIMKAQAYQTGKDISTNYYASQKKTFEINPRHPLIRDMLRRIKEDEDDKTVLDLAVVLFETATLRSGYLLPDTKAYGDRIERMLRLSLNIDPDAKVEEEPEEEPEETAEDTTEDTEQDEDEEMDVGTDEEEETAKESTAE
From the text: To determine which portion (or domain) of the GRP94 protein is bound by the developed antibodies, GRP94 fragments part. 1 and part. 4 were constructed wherein part. 1 was composed of the N-terminal domain (NTD), the Ca^2+ binding domain, the middle domain (MD), and the C-terminal domain (CTD) while part. 4 was derived from part. 1 by cutting off the NTD, the Ca^2+ binding domain, and the MD. In brief, Part. 1 (Asp 22-Glu 799) and Part. 4 (Glu 602-Glu 799) of the human GRP94 gene (Gene ID: 7184) were synthesized and subcloned into pcDNA 3.4 (Invitrogen) mammalian expression vector to finally recombinant DNAs. Using the Expi293 expression system (Invitrogen), the proteins were expressed and purified. The purified antigens part. 1 and part. 4 were analyzed for molecular weight by SDS-PAGE.
Next, ELISA was carried out to examine whether the four antibodies of the present disclosure bind to part 1 and part 4. First, 100 ng of each of the rhGRP94 fragment parts 1 and 4 was fixed to a high binding plate by incubation at 4° C. for 14 hours (overnight binding, 14 hrs). The same amount of BSA was used as a negative control. Then, the plate was blocked with 3% BSA, followed by incubation at 37° C. for 2 hours with 100 μL containing each of the anti-GRP94 antibodies (B5, E5, 2H5, and 3G7) of the present disclosure at a density of 1 μg/mL. […] Absorbance at 450 nm was read.

[3] = tested on: HCT116 subcutaneous xenograft; assay: Tumor growth inhibition by sole administration, colorectal xenograft model; assay type: in vivo, Balb/c nude mice; details: 10 mg/kg intravenous twice per week for six weeks; n=9
From the text: For use in assaying in-vivo efficacy of the four antibodies of the present disclosure, a subcutaneous xenograft mouse model was established by injecting the metastatic colorectal cancer cell line HCT116 (5×10^6 cells) into 6-week-old Balb/c nude mice.

[4] = In vivo hepatotoxicity and nephrotoxicity in colorectal xenograft model; set-up: species or system Balb/c nude mice; details: mouse, 10 mg/kg
Experimental: To assay the four antibodies of the present disclosure for in vivo hepatotoxicity and nephrotoxicity, the same xenograft model as in Example 11 weighed every week. After six weeks of the experiment, GOT (glutamic oxaloacetic transaminase), GPT (glutamate pyruvate transaminase), and TBIL (total bilirubin) were measured for hepatotoxicity assay while BUN (blood urea nitrogen) and CRE (creatinine) were measured for nephrotoxicity assay. The results are depicted in FIGS. 27a and 27b.

[5] = end point, relative to the control PBS

B1: 2H5: anti-GRP94 human IgG antibody; CDRs SEQ ID NOS: 17 to 22, VH SEQ ID NO: 23, VL SEQ ID NO: 24 (antibody, V domains shown)
VH: EVQLLESGGGLVQPGGSLRLSCAASGFTFSGYAMSWVRQAPGKGLEWVSAISHGGSSKYYADSVKGRFTISRDNSKNTLYLQMNSLRAEDTAVYYCAKDLLSPLQSIGSYDDAMDVWGQGTLVTVSS
VL: QSVLTQPPSASGTPGQRVTISCSGSSSNIGSNTVSWYQQLPGTAPKLLIYADNNRPSGVPDRFSGSKSGTSASLAISGLRSEDEADYYCASWDDSLNAYVFGGGTKLTVL
modifications: Amino acid sequence of heavy chain variable of GRP94 2H5; Amino acid sequence of light chain variable of GRP94 2H5
- protein aggregation index [1]: low
- binding to recombinant human GRP94 (recombinant human GRP94): bind
- binding to recombinant rat GRP94 (recombinant rat GRP94): bind
- binding to recombinant monkey GRP94 (recombinant monkey GRP94): bind
- cell index at the end point (HCT8 cells): 3.98±0.09
- cell growth inhibitory ability (HCT116 cells): no statistical significance
- cell index at the end point (HT29 cells; 72 hours, MOCK 2.94±0.04): 2.69±0.02
- cell growth inhibitory ability (HT29 cells; [5]): statistically significant
- cell index at the end point (LoVo cells; 72 hours, MOCK 3.76±0.19): 3.54±0.03
- cell growth inhibitory ability (LoVo cells; [5]): no statistical significance
- binding to part 4 (Glu 602-Glu 799) [2]: did not bind
- tumor growth inhibition compared to PBS [3]: 45%
- changes in body weight [4]: no significant changes
- changes in serum levels of liver and kidney functional indices (GOT, GPT, TBIL, BUN, and CREA) [4]: no significant changes
